Reference: PubChem BioAssay AID602233 (National Center for Advancing Translational Sciences (NCATS), 2012)
Screen size: about 380,000 compounds; about 170 (0.045%) were called active. Calls follow the shape of the dose curve; as a rule, active = well fitted inhibition curve with a large enough effect; inconclusive = small, poorly fitted or top-dose-only effect; inactive = no such curve, though single readings can be large or run the other way. This is a selection; strong and weak results do not stand in their true shares.

These molecules were tested against Phosphoglycerate kinase, glycosomal (Trypanosoma brucei brucei) (UniProt P07378) (assay: qHTS Assay to Find Inhibitors of Phosphoglycerate Kinase). Conditions: PGK/GAPDH coupled, Kinase-Glo luminescence, 60 min; series mostly up to 57.5 µM; activity change, negative = inhibition: at the top concentration.
Text: Several species of the Trypanosomatidae family of parasitic protozoans cause a spectrum of diseases throughout the tropical and subtropical world. Sleeping sickness, caused by two subspecies of Trypanosoma brucei, is endemic to areas of sub-Saharan Africa, while Chagas disease, a manifestation of Trypanosoma cruzi infection, is prevalent throughout Central and South America. In addition, many species of Leishmania are responsible for a range of cutaneous and visceral diseases, causing ulcers, destructive lesions and kalaazar, a lethal infection of the viscera. Collectively, these organisms infect 30 million people worldwide (~500 million live in endemic areas), and account for ~130,000 deaths annually. Given their debilitating and prevalent nature, trypanosomatid parasites impose a heavy medical, economic and social burden on entire populations, primarily in the developing world. The problem is further exacerbated by the fact that existing treatments have progressed little in the past 50 years, and current drugs show high toxicity and poor efficacy. […] Blood-stream stages of T. brucei are entirely dependent on glycolysis as a source of ATP, and the tricarboxylic acid cycle and oxidative phosphorylation are both repressed. Glycolysis in axenically cultured T. cruzi, representing the intracellular pathogenic stage, is also essential for these parasites. […] Previous studies have shown that the glycolytic enzyme, phosphoglycerate kinase (PGK), is a viable target for drugs to kill these parasites. […] NIH Molecular Libraries Probe Production Network [MLPCN] NIH Chemical Genomics Center [NCGC] MLPCN Grant: R03 MH093212 PI Name: Malcolm Walkinshaw, University of Edinburgh
3ul of substrate/PGK buffer (columns 1,2,5-48) are dispensed into Greiner white solid bottom 1536-well assay plates; columns 3-4 receive only TEA buffer as 0x PGK controls. Compounds are then transferred via Kalypsys pin tool equipped with 1536-pin array (10nl slotted pins, V&P Scientific, San Diego, CA). Following addition of compound, 1ul of GAPDH (100nM final concentration, all columns) is added to initiate the reaction (this upstream coupling enzyme is necessary for in-well production of PGK substrate, 1,3-bisphosphoglycerate (1,3-BPG), which is unstable and not commercially available). The plates are then incubated at room temperature for 60 minutes. Kinase-Glo Plus reagent is added (2ul) and plates incubated for 10 minutes, before being transferred to a ViewLux high-throughput CCD imager (PerkinElmer) wherein single end-point measurements of luminescence are acquired using a clear filter. All reagents are diluted in an assay buffer consisting of 100mM TEA (pH 7.6), 5mM MgCl2 and 0.01% Tween-20.
Also: nearly all actives have a fitted effect of over 60% in size.
Potency is read from the fitted curve at half-maximal effect.

Compound | activity change, negative = inhibition | Potency | outcome
Cc1ccc(-c2csc(N(CCCN(C)C)C(=O)c3ccco3)n2)cc1 | inactive: -0.533% |  | 
O=C(O)c1ccc(-c2ccc(/C=c3/sc4nc5ccccc5n4c3=O)o2)cc1Cl |  | active: 10 µM | 
CC(CCc1ccccc1)NC(=O)CNC(=S)N(Cc1cccs1)C1CCCC1 (stereo not given) | inactive: 22% |  | 
O=C1NC(=S)S/C1=C\C=C\c1ccc([N+](=O)[O-])o1 |  | active: 28.2 µM | 
O=C(O)c1cccc(N2C(=O)c3cc([N+](=O)[O-])cc4cc([N+](=O)[O-])cc(c34)C2=O)c1 |  | active: 25.1 µM | 
O=c1cc(-c2ccc(O)cc2)oc2cc(O)c([C@@H]3O[C@H](CO)[C@@H](O)[C@H](O)[C@H]3O)c(O)c12 | inactive: -5.03% |  | 
CCOc1ccccc1NC(=O)CSCC(=O)Nc1ccccc1 | inactive: 20.8% |  | 
COc1ccc(OC)c(NC(=O)c2nc3ccccc3s2)c1 | inactive: 12.7% |  | 
COc1cc(NC(=O)c2cnc(N)s2)cc(C(=O)Nc2cccc(C(F)(F)F)c2)c1 | inactive: 5.87% |  | 
C=Cc1c(C)c2cc3[nH]c(cc4nc(cc5nc(cc1[nH]2)C(C)=C5CCC(=O)O)C(CCC(=O)O)=C4C)c(C)c3C=C |  | active: 10 µM | 
CC(C)n1c(O)c(/C=C2\C=NN=C2c2ccccc2)sc1=S | inactive: 14% |  | 
Cc1ccc(C2NC(=S)NC3=C2C(=O)CCC3)cc1 (stereo not given) | inactive: 3.68% |  | 
Nc1c(C(=O)O)cnc2c(-c3ccc(Cl)cc3)cnn12 |  | active: 31.6 µM | 
Cc1cccc(NC(=S)N(CCN2CCOCC2)Cc2ccccc2F)c1 | inactive: 10.4% |  | 
CC(C)(C)OC(=O)C[C@@H]1C/C=C\C[C@H](CC(=O)N[C@H](CO)Cc2ccccc2)C(=O)N[C@H](C(C)(C)C)COC1=O | inactive: -5.39% |  | 
COCc1[nH]c(=S)c(C#N)cc1C(=O)OC | inactive: 24.3% |  | 
COc1ccc(NC(=O)Nc2ccc(F)c(F)c2)c(OC)c1 | inactive: 3.28% |  | 
O=C(O)/C=C/c1ccc([N+](=O)[O-])o1 |  | active: 15.8 µM | 
CCOC(=O)c1c(NC(=O)CN2CCN(C)CC2)sc(C(=O)Nc2ccccc2)c1C | inactive: 22.7% |  | 
CCOC(=O)CNC(=O)C12CC3CC(CC(C3)C1)C2 | inactive: 23.1% |  | 

Compound | activity change, negative = inhibition | Potency | outcome
C/C=C/c1cc(OC)c2c(c1)[C@H](C)[C@@H](c1ccc(O)c(OC)c1)O2 | inactive: -9.05% |  | 
O=C(NCC1CCCN1S(=O)(=O)c1cccs1)c1ccc(Cl)cc1 (stereo not given) | inactive: 21.8% |  | 
O=C(CCS(=O)(=O)c1ccc(Br)cc1)NCc1ccco1 |  | active: 12.6 µM | 
COc1ccc(-c2cc3nc(C)n(N)c(=O)c3s2)cc1 |  | active: 4.47 µM | 
O=C(O)C1=CCC=CC1C(=O)O (stereo not given) |  | active: 12.6 µM | 
COC(=O)c1ccc(C)c(NC(=S)NCc2ccc(Cl)cc2)c1 | inactive: 27.3% |  | 
O=C(Nc1cc(-c2ccccc2)sc1C(=O)O)c1cccc(F)c1 | inactive: -10.6% |  | 
Cc1ccc(C(=O)O/N=C(\N)c2ccccn2)cc1 |  | active: 25.1 µM | 
CC(/C=C/c1ccc(Cl)o1)=C\C(=O)O | inactive: -5.96% |  | 
Cc1ccc(SCc2nc3ccccc3n2CC(=O)Nc2c(C)cccc2C)cc1 | inactive: 23.4% |  | 
O=C(/C=C/c1ccc(Cl)cc1)NC(=S)Nc1ccc(CN2CCOCC2)cc1 | inactive: 20.9% |  | 
Oc1ccc(C[C@@H]2CNCCN2CCc2cccc3ccccc23)cc1 | inactive: -5.43% |  | 
Cc1ccc(C(=O)O)cc1N1C(=O)CCCC1=O | inactive: 24.2% |  | 
CCOC(=O)c1c(C)[nH]c(C(=O)OCC(=O)N2c3ccccc3CC2C)c1C (stereo not given) | inactive: 18.1% |  | 
CC1CCCCN1C(=O)Cn1cnc2cc([N+](=O)[O-])ccc2c1=O (stereo not given) | inactive: 8.4% |  | 
C=C(C)C(=O)Nc1cccc(C2=NOC3(C2)C[C@@H](C(N)=O)N(C(=O)c2cc([N+](=O)[O-])cc([N+](=O)[O-])c2C)C3)c1 (stereo not given in full) |  | active: 11.2 µM | 
N[C@@H](Cc1cc(I)c(Oc2ccc(O)c(I)c2)c(I)c1)C(=O)O | inactive: -0.193% |  | 
NCCCC[C@@H]1NC(=O)[C@H](CCC(=O)O)NC(=O)c2cc([N+](=O)[O-])cc(I)c2OCC[C@@H](C(N)=O)NC1=O | inactive: -17.3% |  | 
O=C(O)c1ccccc1NS(=O)(=O)c1ccc(N/N=C/c2cccc(O)c2O)c([N+](=O)[O-])c1 |  | active: 8.91 µM | 
COc1ccc(-c2nn(-c3ccccc3)cc2/C=C2/SC(=S)N(CCC(=O)O)C2=O)cc1 |  | active: 20 µM | 

Compound | activity change, negative = inhibition | Potency | outcome
O=c1oc2c(O)c(O)cc3c(=O)oc4c(O)c(O)cc1c4c23 |  | active: 0.891 µM | 
CC1(C)Cc2c(sc3ncn(N)c(=N)c23)CO1 | inactive: 25.6% |  | 
COc1cc(C(=S)N2CCCC2)ccc1O | inactive: 18.4% |  | 
CCC(=O)N1CCN(c2ccc(NC(=O)c3ccc([N+](=O)[O-])o3)cc2Cl)CC1 | inactive: 35.2% |  | 
Cc1c(C(=O)NCc2ccccn2)oc2ccc(S(=O)(=O)N3CCC4(CC3)OCCO4)cc12 | inactive: 33.1% |  | 
O=C1Nc2ccc(Br)cc2/C1=N\N=C\C1=C(N2CCOCC2)C(=C/c2ccccc2)/CC1 | inactive: -11.1% |  | 
c1csc(Cc2nc3ccccc3[nH]2)c1 | inactive: 20.8% |  | 
CCOc1ccc(/C=C2\SC(=S)N(CCC(=O)Nc3ccc(C(=O)O)cc3)C2=O)cc1 | inactive: -23.8% |  | 
CC(C)(C)OC(=O)C[C@H]1C/C=C\C[C@H](CC(=O)N[C@H](CO)Cc2ccccc2)C(=O)N[C@H](C(C)(C)C)COC1=O | inactive: -9.59% |  | 
O=C(CN1C(=O)S/C(=C/C=C/c2ccccc2)C1=O)Nc1ccc(C(=O)O)cc1 |  |  | inactive
O=C(CN1C(=O)/C(=C/c2ccco2)SC1=S)Nc1ccc(C(=O)O)c(O)c1 |  | active: 28.2 µM | 
Cc1ccc(C(=O)CCC(=O)Nc2cccc(C(F)(F)F)c2)cc1C | inactive: 19.7% |  | 
COC(=O)C1=CNC=C(C(=O)OC)C1c1cccc(OC)c1 | inactive: 21.9% |  | 
CC(C)(C)OC(=O)C[C@H]1C/C=C\C[C@@H](CC(=O)NCCO)C(=O)N2CCC[C@H]2COC1=O | inactive: -5.66% |  | 
O=C(CCNC(=O)c1ccccc1)Nc1cccnc1 | inactive: 34.5% |  | 
O=C(CCN1C(=O)/C(=C\c2ccco2)SC1=S)Nc1ccc(C(=O)O)c(O)c1 | inactive: -20.7% |  | 
CC(=O)c1ccc(NC(=O)CN2C(=O)CCc3cc(S(=O)(=O)N4CCC(C)CC4)ccc32)cc1 |  | active: 25.1 µM | 
CCOC(=O)c1c(S(=O)(=O)NCC(=O)Nc2cc(C)ccc2OC)c(C)n(C)c1C | inactive: -3.62% |  | 
O=C1C2C3C=CC(c4ccccc4)(C2C(=O)N1c1cccc(Cl)c1)C1C(=O)N(c2cccc(Cl)c2)C(=O)C31 (stereo not given) | inactive: 34.5% |  | 
CCCCOc1ccc(N2C(=O)C(C)CNC2=S)cc1 (stereo not given) | inactive: 18.3% |  | 
